# According to PubChem BioAssay AID588342 (National Center for Advancing Translational Sciences (NCATS), 2011):
# The whole screen tested about 360,000 compounds, of which about 25,000 (6.9%) were called active. Inconclusive means that the source gave no clear call. Such entries were picked first, then a sample of the others. Calls follow the shape of the dose curve; as a rule, active = well fitted inhibition curve with a large enough effect; inconclusive = small, poorly fitted or top-dose-only effect; inactive = flat fitted curve, though single readings scatter. Potencies of inconclusive entries are doubtful fits and often do not repeat.
# Target: Luciferin 4-monooxygenase (Photinus pyralis) (UniProt P08659)
# Experiment: qHTS profiling assay for firefly luciferase inhibitor/activator using purifed enzyme and Km concentrations of substrates (counterscreen for miR-21 project); also: nearly all actives have a fitted effect of over 55% in size;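 as to activity change, negative = inhibition: plate controls were vehicle for no effect and reference inhibitor for full effect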
# Conditions: purified FLuc, luminescence inhibition; series mostly up to 57.5 µM; activity change, negative = inhibition: at the top concentration
# In short: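 Biochemical qHTS of compounds, final roughly 60 µM downward over six points, against 10 nM purified firefly luciferase using Km concentrations of substrates (10 uM D-luciferin, 10 uM ATP) in Tris acetate pH 7.5 buffer; luminescence output.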
# Potency is read from the fitted curve at half-maximal effect; tags tell the direction and shape of the fitted curve.
# Chain of UniProt P08659 (P08659 whole entry, looked up): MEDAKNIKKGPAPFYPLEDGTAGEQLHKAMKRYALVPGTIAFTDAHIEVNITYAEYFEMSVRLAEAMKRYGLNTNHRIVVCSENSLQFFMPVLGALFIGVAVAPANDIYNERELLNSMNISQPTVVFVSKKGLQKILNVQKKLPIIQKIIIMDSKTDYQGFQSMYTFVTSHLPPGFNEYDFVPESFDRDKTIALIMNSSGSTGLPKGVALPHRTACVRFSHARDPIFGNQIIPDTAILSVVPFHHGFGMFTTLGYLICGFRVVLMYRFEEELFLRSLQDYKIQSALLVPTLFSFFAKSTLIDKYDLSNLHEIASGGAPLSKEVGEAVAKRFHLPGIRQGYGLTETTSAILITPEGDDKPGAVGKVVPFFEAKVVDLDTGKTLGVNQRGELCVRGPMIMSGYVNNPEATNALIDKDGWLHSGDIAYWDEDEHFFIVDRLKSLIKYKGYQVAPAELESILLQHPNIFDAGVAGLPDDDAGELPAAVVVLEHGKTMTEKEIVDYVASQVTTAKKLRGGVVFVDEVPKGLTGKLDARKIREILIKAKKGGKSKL
Compound,Potency,"activity change, negative = inhibition"
Oc1ccc(Cl)cc1Cc1cc(Cl)ccc1O,"inconclusive: 23.9 µM [inhibitor, partial curve]",–
CN1C(=O)/C(=C\c2ccc(N3CCCCC3)o2)C(=O)NC1=S,active: 8.49 µM,–
COC(=O)C(O)(c1ccc(N(C)S(=O)(=O)c2ccccc2)cc1)C(F)(F)F (stereo not given),"inconclusive: 16.9 µM [inhibitor, partial curve]",–
CN(C)CCc1nc2ccccc2c(=O)n1-c1ccccc1,"inconclusive: 21.3 µM [inhibitor, single point]",–
CN1C(=O)C(=Cc2ccc(OCCN(C)c3ccccn3)cc2)C(=O)N(C)C1=O,"inconclusive: 37.9 µM [inhibitor, single point]",–
O=C1C2C3CCC(C3)C2C(=O)N1c1ccc(OS(=O)(=O)c2ccccc2)cc1 (stereo not given),active: 12 µM,–
O=[N+]([O-])c1ccccc1CNCCc1ccc(F)cc1,"inconclusive: 30.1 µM [inhibitor, partial curve, poor fit]",–
Cn1nccc1C(=O)N1CCC2(CC1)OCCO2,–,inactive: 1.13%
COC(=O)CCC(=O)Nc1sc(Cc2ccccc2)c(C)c1C(N)=O,"inconclusive: 8.49 µM [inhibitor, partial curve]",–
O=C(N/N=C/c1c(O)n(CCc2ccccc2)c(=O)[nH]c1=O)c1ccccc1O,"inconclusive: 23.9 µM [inhibitor, single point]",–
CN(C)C(=O)Oc1c(Cl)cc(Cl)c2ccccc12,–,inactive: -0.0397%
C/C(O)=C(\C#N)C(=O)Nc1cc(Br)ccc1Br,"inconclusive: 37.9 µM [inhibitor, single point]",–
Cc1ccc(-c2cc(-c3ccccc3)cc(-c3ccccc3)[n+]2-c2ccccc2)cc1,–,inactive: 3.78%
NC(=S)c1cn(C2OC(CO)C(O)C2O)c2ncnc(N)c12 (stereo not given),–,inactive: -5.5%
CC(C)(C)C(=O)c1cn(CC(=O)NCc2ccco2)c2ccccc12,"inconclusive: 23.9 µM [inhibitor, single point]",–
C[C@H]1COC2=C1C(=O)C(=O)c1c2ccc2c1CCCC2(C)C,active: 21.3 µM,–
CCN(CC)C(=O)c1c(C)[nH]c(=S)c(C#N)c1-c1ccco1,"inconclusive: 26.9 µM [inhibitor, partial curve, poor fit]",–
S=c1[nH]nc(-c2ccc3ccccc3n2)n1-c1ccc2c(c1)OCCO2,"inconclusive: 26.9 µM [inhibitor, partial curve, poor fit]",–
COc1ccc(-n2nc(C(=O)NCC(=O)N3CCC4(CC3)OCCO4)c3ccccc3c2=O)c(OC)c1,active: 1.07 µM,–
O=C(c1ccccc1)c1ccc(N=Nc2c(O)[nH]c(=O)[nH]c2=O)cc1,–,inactive: 0.911%
CCCCn1c(O)c(/C(C)=N/NC(=O)Nc2ccccc2)c(=O)[nH]c1=O,"inconclusive: 37.9 µM [inhibitor, partial curve, poor fit]",–
COc1ccc(N2C(=O)NC(=O)/C(=C\c3ccc([N+](=O)[O-])s3)C2=O)cc1,"inconclusive: 21.3 µM [inhibitor, partial curve]",–

Compound,Potency,"activity change, negative = inhibition"
Cn1cc(C(=O)OCC(=O)N2CCCCC2)c2ccccc21,"inconclusive: 26.9 µM [inhibitor, single point]",–
CCNc1cc(N2CCN(C)CC2)ccc1[N+](=O)[O-],–,inactive: 2.31%
COc1cccc(-n2c(/C=C/c3ccc(O)c(O)c3)nc3ccccc3c2=O)c1,"inconclusive: 26.9 µM [inhibitor, partial curve, poor fit]",–
Cc1ccccc1N1C(=O)/C(=C/c2ccco2)C(=O)NC1=S,active: 23.9 µM,–
CC(=O)c1ccc2c(c1)C1C(Cl)C(Sc3ccccc3[N+](=O)[O-])CC1C(c1ccccc1[N+](=O)[O-])N2 (stereo not given),–,inactive: -3.97%
COc1ccc(CCn2c(O)c(/C=N/NC(=O)c3ccncc3)c(=O)[nH]c2=O)cc1OC,"inconclusive: 26.9 µM [inhibitor, single point]",–
COc1ccccc1N1C(=O)NC(=O)/C(=C\c2cnn(-c3ccccc3)c2)C1=O,"inconclusive: 37.9 µM [inhibitor, single point]",–
COc1ccc(/C=N/NC(=O)c2cccc([N+](=O)[O-])c2)cc1OC,"inconclusive: 26.9 µM [inhibitor, partial curve, poor fit]",–
CC(C)OCCCNC(=O)c1c(N)n(Cc2cccs2)c2nc3ccccc3nc12,–,inactive: -2.67%
CCCCN1C(=O)NC(=O)/C(=C/c2cnc(SC)nc2)C1=O,"inconclusive: 37.9 µM [inhibitor, partial curve, poor fit]",–
O=C(N/N=C/c1c(O)n(C2CC2)c(=S)[nH]c1=O)c1ccccc1,"inconclusive: 37.9 µM [inhibitor, partial curve, poor fit]",–
O=C1NC(=O)N(CCC2=CCCCC2)C(=O)/C1=C\c1cccs1,"inconclusive: 19 µM [inhibitor, partial curve, poor fit]",–
O=C(COc1ccccc1)c1cn(Cc2ccccc2)c2ccccc12,"inconclusive: 21.3 µM [inhibitor, partial curve]",–
COc1cc(C(c2c(C)[nH]n(-c3ccccc3)c2=O)c2c(C)[nH]n(-c3ccccc3)c2=O)cc(OC)c1OC,"inconclusive: 13.5 µM [inhibitor, partial curve]",–
COc1cc(C=C2C(=O)NC(=O)NC2=O)ccc1O,"inconclusive: 16.9 µM [inhibitor, partial curve]",–
CCN1C(=O)C(=Cc2ccc(C)s2)C(=O)N(CC)C1=S,"inconclusive: 16.9 µM [inhibitor, partial curve, poor fit]",–
CC(=O)Nc1ccccc1C(=O)OCc1ccc(C(=O)c2ccccc2)cc1,"inconclusive: 37.9 µM [inhibitor, partial curve, poor fit]",–
CCOC(=O)c1c(C)n(Cc2ccccc2)c2ccc(O)cc12,"inconclusive: 37.9 µM [inhibitor, partial curve, poor fit]",–
C(=N\NC1=NCCCCC1)/c1c[nH]c2ccccc12,"inconclusive: 37.9 µM [inhibitor, partial curve, poor fit]",–
Cc1ccc(C(=O)c2cc(Br)ccc2N)cc1,"inconclusive: 33.8 µM [inhibitor, partial curve, poor fit]",–
CN(C)c1ccc(C=C2C(=O)NC(=O)NC2=O)cc1[N+](=O)[O-],"inconclusive: 37.9 µM [inhibitor, partial curve, poor fit]",–
C/C(=N\N1CCCCCC1)c1c(O)n(C2CCCCC2)c(=O)[nH]c1=O,"inconclusive: 37.9 µM [inhibitor, partial curve, poor fit]",–

Compound,Potency,"activity change, negative = inhibition"
CC/C(=N\NC(=O)Nc1ccccc1)c1c(O)n(Cc2ccccc2)c(=O)[nH]c1=O,"inconclusive: 37.9 µM [inhibitor, single point]",–
CC(=O)c1cn(CCCOc2ccccc2)c2ccccc12,"inconclusive: 30.1 µM [inhibitor, partial curve, poor fit]",–
Cc1nn(Cc2ccc(Cl)cc2Cl)c(Cl)c1C(=O)O,"inconclusive: 21.3 µM [inhibitor, partial curve, poor fit]",–
CCS(=O)(=O)C1=NN2C(=N)/C(=C\c3ccc(OC(=O)c4ccco4)cc3)C(=O)N=C2S1,"inconclusive: 19 µM [inhibitor, partial curve, poor fit]",–
O=C1NC(=O)N(Cc2ccccc2)C(=O)/C1=C\C=C\c1ccco1,"inconclusive: 30.1 µM [inhibitor, partial curve, poor fit]",–
CC(C)(C)c1ccc(C(=O)Nc2ccc(Cl)cc2C(=O)c2ccccc2)cc1,–,inactive: -5.04%
CCOc1ccc(C(=O)Nc2ccc3nc(SCC(=O)N4CCCC4)sc3c2)cc1,"inconclusive: 3.01 µM [inhibitor, partial curve, poor fit]",–
CN(C)c1ccc(C(=O)c2ccc(N(C)C)cc2)cc1,active: 13.5 µM,–
CCCc1cc(=O)oc2cc(OCc3ccc(C(=O)O)o3)ccc12,"inconclusive: 30.1 µM [inhibitor, partial curve, poor fit]",–
COc1ccccc1OCCCn1cc(C(=O)C2CC2)c2ccccc21,"inconclusive: 19 µM [inhibitor, partial curve, poor fit]",–
O=c1cc(-c2ccc(O)c(O)c2)oc2cc(O)cc(O)c12,active: 23.9 µM,–
c1ccc(OCCSc2nc3ccccc3[nH]2)cc1,active: 16.9 µM,–
CN(C)C(Cc1ccccc1)C(=O)c1ccccc1 (stereo not given),"inconclusive: 26.9 µM [inhibitor, single point]",–
COC(=O)C(O)(c1ccc(NC(=O)c2ccccc2)cc1)C(F)(F)F (stereo not given),active: 19 µM,–
O=c1[nH]c(=S)[nH]c(O)c1/C=C1/C=c2ccccc2=N1,"inconclusive: 13.5 µM [inhibitor, partial curve, poor fit]",–
Cn1cc(Br)c(C(=O)Nc2ccc3c(C(F)(F)F)cc(=O)oc3c2)n1,"inconclusive: 10.7 µM [inhibitor, partial curve]",–
O=C(Nc1ccc(F)cc1F)c1cccn(Cc2ccccc2)c1=O,"inconclusive: 15.1 µM [inhibitor, partial curve]",–
COc1ccc(CCNC(=O)c2c(N)n(CCN3CCOCC3)c3nc4ccccc4nc23)cc1OC,–,inactive: -8.05%
COc1ccc(CN2C(=O)NC(=O)/C(=C/c3ccc([N+](=O)[O-])o3)C2=O)cc1,active: 19 µM,–
O=C(Cc1cccc(C(F)(F)F)c1)N1CCN(CC(=O)N2CCCC2)CC1,–,inactive: 0.902%
O=C1NC(=O)C(=Cc2ccc(OCCOc3ccc([N+](=O)[O-])cc3)cc2)C(=O)N1,"inconclusive: 26.9 µM [inhibitor, single point]",–
